Measurements as given in PubChem BioAssay AID624296 (National Center for Advancing Translational Sciences (NCATS), 2012).
Out of some 350,000 compounds screened, about 9,900 (2.8%) were called active. The inconclusive results got no clear call from the source; some entries with a clear call stand among them for comparison. Calls follow the shape of the dose curve; as a rule, active = well fitted activation curve with a large enough effect; inconclusive = small, poorly fitted or top-dose-only effect; inactive = no such curve, though single readings can be large or run the other way. Potencies of inconclusive entries are left out as doubtful fits.

experiment: A quantitative high throughput screen for small molecules that induce DNA re-replication in MCF 10a normal breast cells.; also: nearly all actives have a fitted effect of over 50% in size; settings: MCF 10A DNA re-replication, Hoechst nuclear intensity, 48 h; series mostly up to 46.1 µM
Potency is read from the fitted curve at half-maximal effect; tags tell the direction and shape of the fitted curve.

Compound | Potency
Cc1ccsc1/C=C1\Oc2cc(OCC(=O)c3ccccc3)ccc2C1=O | inconclusive [activator, single point]
O=C1C=CC(=Nc2ccc3c(c2)Cc2cc(F)ccc2-3)O1 | inactive
CCCC(O)(CCC)C(=O)NN(C(=O)CCl)c1cccc(C)c1 | active: 14.6 µM
CC(C)N1CCC2(CC1)N=C(c1ccc3c(c1)OCO3)CC(c1cc(Cl)ccc1O)N2 (centres undefined) | active: 5.8 µM
CCOC(=O)c1[nH]c(=O)[nH]c1CNc1ccccc1C#N | inconclusive [activator, single point]
CCOC(=O)c1c(NC(=S)Nc2ccc(Cl)cc2)sc2c1CCN(C)C2 | inconclusive [activator, partial curve, poor fit]
CCCCC/C=C\C[C@H](O)/C=C/c1cccc(C[C@H](O)CCCCO)n1 | inconclusive [activator, single point]
COc1ccc(-c2cc(CNC(=O)CCl)on2)cc1 | inconclusive [activator, single point]
O=C1S/C(=C\c2ccc(N3CCOCC3)o2)C(=O)N1Cc1c(F)cccc1Cl | inactive
Cc1cc(C)c2nc(NNC(=O)c3ccc(S(=O)(=O)N4CCc5ccccc5C4)cc3)sc2c1 | inconclusive [activator, full curve, poor fit]
CN(CC(=O)Nc1ccc(F)cc1)C(=O)c1cc(-c2ccco2)nc2ccccc12 | inactive
CC(=O)C[C@H](O)CC(=O)[C@@H]1OC(=O)CCCCC/C=C/Cc2ccccc21 | inactive
O=C(CSc1ccc(Cl)cc1)NC1CCCC1 | inconclusive [activator, partial curve, poor fit]
OC(CNc1ccccc1)COc1ccc(OCC(O)CNc2ccccc2)cc1 (centres undefined) | inconclusive [activator, single point]
O=C(O)/C=C/c1ccccc1[N+](=O)[O-] | inconclusive [activator, partial curve, poor fit]
CCC(C)(C)NC(=S)Nc1ccc(-c2nc3ccc(C)cc3s2)cc1 | inconclusive [activator, partial curve, poor fit]
Cc1nnc(N2CCN(c3ccccc3)CC2)[nH]c1=O | inconclusive [activator, single point]
COc1cc(/C=C(\C#N)c2ccccn2)ccc1OCC(=O)Nc1c(Cl)cccc1Cl | inconclusive [activator, partial curve]
CCOC(=O)C1(CC2CC2)CCN(Cc2ccc(OC)cc2F)CC1 | inconclusive [activator, partial curve, poor fit]
COc1cccc2cc(-c3n[nH]c(=S)n3C)oc12 | inactive
COc1ccc(N2CCN(C(=O)CCNC(=O)c3ccc(C(C)(C)C)cc3)CC2)cc1 | inconclusive [activator, full curve, poor fit]
COC(=O)Cn1cc(/C=C/[N+](=O)[O-])c2ccccc21 | inconclusive [activator, single point]
O=c1cc(CN2CCN(C/C=C/c3ccccc3)CC2)c2cc(O)ccc2o1 | inconclusive [activator, single point]

Compound | Potency
COc1cccc(NC(=O)c2cn(C)c(=O)c3cc(OC)c(OC)cc23)c1 | inconclusive [activator, single point]
CC(C)N1CCN(C(=O)c2ccc(OC3CCN(CCc4ccccc4)CC3)cc2)CC1 | inconclusive [activator, single point]
CC(NC(=O)c1cccc2ccccc12)c1ccc2c(c1)CCCC2 (centres undefined) | inconclusive [activator, full curve]
CCOc1cc2c(C#N)c(N3CCNCC3)nc(N)c2c(N)n1 | inconclusive [activator, single point]
C=CCN1c2ccc(Br)cc2C(=O)CS1(=O)=O | inconclusive [activator, single point]
Cc1ccc2nc(-c3ccccc3)c(-c3ccccc3)nc2c1 | inconclusive [activator, single point]
CCN1CCN(c2nc3ccccc3nc2C(C#N)C(=O)OC2CCCCC2)CC1 (centres undefined) | inconclusive [activator, single point]
O=C(O)c1ccc2c(c1)C1C=CCC1C(c1cc3c(cc1Br)OCO3)N2 (centres undefined) | inconclusive [activator, partial curve, poor fit]
O=c1cc(CCl)nc2sc3ccccc3n12 | inconclusive [activator, single point]
CCc1nc(Nc2ccc(NC(C)=O)cc2)c2oc3ccccc3c2n1 | inconclusive [activator, single point]
CN1C2CCC1CC(NC(=O)c1cc(Cl)cc3[nH]cnc13)C2 (centres undefined) | inactive
Cc1nn(Cc2ccccc2)c(Cl)c1/C=N/NC(=O)CNc1cccc(C(F)(F)F)c1 | inconclusive [activator, partial curve]
CN(Cc1ccccc1)C(=O)c1cccc(NC(=O)Cc2cccc(NC(=O)C3CCN(C(=O)C4CCC4)CC3)c2)c1 | inconclusive [activator, single point]
CN1CCN(S(=O)(=O)c2cccc(C(=O)Nc3cc(Cl)ccc3N3CCOCC3)c2)CC1 | inconclusive [activator, single point]
Clc1ccc2nc3c4ccccc4cnn3c2c1 | inconclusive [activator, single point]
CCn1c2ccc(Cl)cc2c2nc3ccccc3nc21 | inconclusive [activator, single point]
COc1ccccc1Nc1nc(-c2sc(N)nc2C)cs1 | inactive
CCOC(=O)C1(Cc2cccc(Cl)c2)CCCN(C(=O)C2CC2)C1 (centres undefined) | inactive
Nc1ccc(C(=O)OCCCc2nc3ccccc3[nH]2)cc1 | inconclusive [activator, full curve, poor fit]
CC(=O)Nc1cccc2c1C(=O)N(c1ccc(OC(C)=O)cc1)C2=O | inactive
CCOC(=O)C1(CCOc2ccccc2)CCN(Cc2cccn2-c2cccnc2)CC1 | inconclusive [activator, single point]
COc1cc(OC)c2c(-c3cccc(-c4sccc4C(C)=O)c3)cc(=O)oc2c1 | active: 0.651 µM
CCN1C(=O)c2cccc3c(S(=O)(=O)Nc4ccccc4)ccc1c23 | active: 23.1 µM

Compound | Potency
Cc1cc(-n2c(C)cc(C(=O)CCl)c2C)no1 | active: 3.26 µM
CN(C)c1ccc(NC(=S)NC23CC4CC(CC(C4)C2)C3)cc1 | inactive
CCOC(=O)C1=C(C)NC(SC(C)=O)=NC1c1ccc(OC(C)=O)c(OC)c1 (centres undefined) | inconclusive [activator, partial curve, poor fit]
COc1ccc(C(CCc2ccc(C)o2)NC(=O)Nc2ccc(OC)cc2OC)cc1 (centres undefined) | inactive
CC(C)(C)OC(=O)N[C@@H](CCCCNC(=O)OCc1ccccc1)c1nnc([C@H](CCCCNC(=O)OCc2ccccc2)NC(=O)OC(C)(C)C)o1 | inactive
COc1ccccc1C(CNC(=O)c1cccc(S(=O)(=O)Nc2ccc(F)cc2)c1)N1CCCC1 (centres undefined) | inconclusive [activator, single point]
CCOC(=O)c1c(C)[nH]c(C)c1S(=O)(=O)NCC1CCN(Cc2cccc(Cl)c2)CC1 | inactive
Cc1ccc(OCc2cc(C(=O)N3CCC(C(O)C(C)C)CC3)no2)cc1C (centres undefined) | inconclusive [activator, partial curve, poor fit]
Cc1nc(N2CCN(C)CC2)c2c(C)c(C(=O)Nc3ccc(C)c(F)c3)sc2n1 | inconclusive [activator, partial curve, poor fit]
CCOc1ccc(C2=CC(=O)C[C@H](c3ccc(OC)cc3)C2)cc1 | inactive
CCc1ccc(Nc2n[n+](-c3ccccc3)c(-c3ccc(N(CC)CC)cc3)s2)cc1 | inconclusive [activator, single point]
Cc1cc(C)cc(NC(=O)CSc2nc3nc(C)cc(C)n3n2)c1 | inactive
COc1ccc(S(=O)(=O)N2CCSC2c2ccccc2)cc1 (centres undefined) | inconclusive [activator, full curve, poor fit]
[N-]=[N+]=NC[C@H](Cc1ccccc1)N1CC[C@@H](NC(=O)OCc2ccccc2)CCC1=O | inactive
CC1=C(C(=O)Nc2ccccc2)C(c2ccco2)C(C#N)=C(SCC(=O)Nc2cccc(C)c2C)N1 (centres undefined) | inactive
Fc1ccc(Cn2nnc3ccccc32)cc1 | inconclusive [activator, full curve, poor fit]
O=C(NCc1cc([N+](=O)[O-])ccc1O)c1cccnc1Sc1ccc(Cl)cc1 | inconclusive [activator, single point]
COc1ccc(/C=C2\N=C(SC)N(c3ccccc3OC)C2=O)cc1 | inconclusive [activator, partial curve, poor fit]
Cc1cc(-c2nnc(SCC(=O)Nc3ccc(Br)cc3F)n2N)n[nH]1 | inactive
CC(=O)COc1cc(C)cc2oc(=O)cc(-c3ccccc3)c12 | inactive
Cc1ccc(CN=c2c([N+](=O)[O-])nn(-c3cccc(Cl)c3)n2O)cc1 | inactive
O=C1CS/C(=N/N=C2CCCC2)N1 | inconclusive [activator, full curve, poor fit]
O=S(=O)(Nc1c(O)ccc2ccccc12)c1cccc2ccccc12 | inconclusive [activator, single point]
